Experimental findings from publication PMC5515408 are described below.

The list shows a part of the results. At the low end of the ranking the order means little.

The target of this experiment is MAX:MAX (p21) (UniProt P61244-2). Kind of experiment: protein-binding microarray (anti-MAX antibody). The conditions noted are these: PBM: 15 mM Tris-HCl pH 7.5, 100 mM KCl, 0.075% NP40, 7.5 mM beta-mercaptoethanol, 375 ng/ul BSA, 8 ng/ul poly(dA-dT):(dA-dT), 550 ng complex, 60 min, room …; high values mean tight binding; double strand, one strand shown; sequences stand for … in CCGGC…TTAATAGCTAAGATTACTATATCGACG
For AGACACTTTGTA, the binding signal (log2 normalized fluorescence) is 0.324.
The result for TGAGATCAAGTA reads -1.05.
The result for TGAACATGGGTA reads 1.86.
The result for TGATAGCCTGTA reads -0.436.
Consider TGAAGGATGGTA, for which the binding signal (log2 normalized fluorescence) is -0.0298.
The sequence TGAGGACAGGTA displayed a binding signal (log2 normalized fluorescence) of -0.599.
TGATGTTGCGTA registered a binding signal (log2 normalized fluorescence) of 0.203.
In turn, TGATCTCATGTA came in with a binding signal (log2 normalized fluorescence) of 1.36.
As for TGATAAGAAGTA, the binding signal (log2 normalized fluorescence) was -1.09.
For TGATTTGAAGTA the value was -0.941; for TGACCGATGGTA, -0.142.
For TGACTCGGTGTA the value was -0.356; for TGACAGTACGTA, -0.101; for TGAATTTTAGTA, -1.2.
Regarding TGAGGCGTGGCA, the binding signal (log2 normalized fluorescence) was 2.67.
The result for TGACTCACAGTA reads -0.188; that for TGAGCGAGTGTA, 0.00325; that for TGATAGGGGGTA, 1.2.
For TTACGCGTGGTA the value was 3.27; for TGACAAGTGGTA, 0.53.
The result for ACGCACGTGGTA reads 3.29.
Consider TGAGCGTGTGTA, for which the binding signal (log2 normalized fluorescence) was determined as 2.08.
TGACATGAGGTA returned a binding signal (log2 normalized fluorescence) of 2.52.
Turning to TGAGTTGATGTA, the binding signal (log2 normalized fluorescence) is -0.409.
The result for TGAGGGCGGGTA reads 0.319.
For TGATTCAGTGTA the value was -0.789; for TGAACCGAGGTA, -0.398.
Sequence TCGTCCCCTGAC yielded a binding signal (log2 normalized fluorescence) of -0.73.
The result for TGACACCTCGTA reads 0.482.
The sequence GGGCACGTGGTA had a binding signal (log2 normalized fluorescence) of 3.35.
In turn, TGAATTACTGTA came in with a binding signal (log2 normalized fluorescence) of -0.662.
In turn, TGAAAGTACGTA returned a binding signal (log2 normalized fluorescence) of -0.583.
For the sequence TGAACCAGTGTA, the binding signal (log2 normalized fluorescence) is -0.309.
For TGTGTCGTGGTA the value was 0.865; for TGAGCTTGTGTA, -0.232; for TGACTGCGGGTA, -0.115.
With TGAGTTCAGGTA, the binding signal (log2 normalized fluorescence) was -0.866.
For TCATAAGTGGTA the value was 0.241; for TGATGAATCGTA, -0.397; for TGATGCTGGGTA, -0.147.
The result for TGACGGTAGGTA reads -0.487.
The result for TGAACGATTGTA reads -0.635.
Take TGATCTGATGTA: the binding signal (log2 normalized fluorescence) was -0.514.
For TGACTTGCCGTA the value was -0.0827; for TGAGCTTCTGTA, -0.668.
The result for TGACGCGTGCCA reads 3.24; that for TGATGGTCCGTA, 0.325.
TGAGTAGGCGTA registered a binding signal (log2 normalized fluorescence) of -1.32.
TGAACCGGGGTA registered a binding signal (log2 normalized fluorescence) of -0.0822.
For TGAGCGAAGGTA, the binding signal (log2 normalized fluorescence) was -0.93.
The result for TGACACGTGTAG reads 3.17; that for TGACACGTGCTA, 3.17.
The result for TGATGGGAAGTA reads -0.343; that for TCACACGTGGTT, 3.32.
For TGAAGACCAGTA the value was -0.661; for GCCCACGTGGTA, 3.43; for TGAATCTCCGTA, -1.18.
TGAATACTAGTA displayed a binding signal (log2 normalized fluorescence) of -0.595.
Consider TGACACGTGATG, for which the binding signal (log2 normalized fluorescence) turned out to be 3.13.
For TGATCCCAAGTA the value was -0.758; for TGAATAGGTGTA, -0.568; for TGAGCCCTCGTA, -0.825.
For TGACCACTTGTA the value was 0.251; for TGACTTCGGGTA, -0.884; for TTACAAGTGTTA, 0.37.
In turn, TGAAATACAGTA returned a binding signal (log2 normalized fluorescence) of -0.598.
Turning to TCACACGTCGTA, the binding signal (log2 normalized fluorescence) was 2.63.
Sequence TGAAAACACGTA yielded a binding signal (log2 normalized fluorescence) of 0.876.
As for TGAAAGCTAGTA, the binding signal (log2 normalized fluorescence) is -1.23.
The result for TGAAAAATGGTA reads -0.502; that for TGACTCTCGGTA, -0.779.
The result for TGAAAACGCGTA reads 0.5; that for TGATGCATCGTA, 0.17.
The result for TGAGAGGTGGTA reads -0.21; that for TGACACGTCATG, 1.8; that for TGAAAAGACGTA, -0.657.
Take TGATTATGGGTA: the binding signal (log2 normalized fluorescence) was -0.773.
The result for TGACTTACTGTA reads -0.388.
For TGAGTTTTTGTA the value was -1.36; for TGACTCGCAGTA, -0.3.
The result for TGAGGTAGGGTA reads -0.447; that for TGAATGCTAGTA, -0.0965; that for CCTAATTATCAA, -1.2.
As to TGAAAGAAGGTA, the binding signal (log2 normalized fluorescence) was -0.725.
The result for TGAATAGCCGTA reads -1.21; that for TGAGGGTGCGTA, 0.326; that for TCCTATTCGCGA, -1.45.
The result for TGGTTCGTGGTA reads 0.191.
The result for TGAATACGTGTA reads 0.346.
Take TGAACTTGAGTA: the binding signal (log2 normalized fluorescence) is -0.584.
For TGGCACGTAGTA the value was 1.57; for TGATAACCAGTA, -0.301; for TGACCCCCGGTA, -0.184.
As to TGACCCGCGGTA, the binding signal (log2 normalized fluorescence) is 0.505.
The result for TGACAAGAAGTA reads -0.507; that for TGAACGTACGTA, -0.307; that for TCACACGTAGCA, 2.4.
Consider TGAGCTGAAGTA, for which the binding signal (log2 normalized fluorescence) was -0.814.
For TGAGATGCAGTA the value was -0.489; for TGACCGGCCGTA, -0.507.
For TGACGGCGTGTA the value was 2.34.
Consider TGAATCGCCGTA, for which the binding signal (log2 normalized fluorescence) was -0.913.
Turning to TGACGAGATGTA, the binding signal (log2 normalized fluorescence) is -0.0441.
For TGAAGTTAGGTA the value was -0.789; for TGAGCTGGAGTA, -0.718.
Take TGAAGTTGAGTA: the binding signal (log2 normalized fluorescence) is -0.854.
The result for TGACGCGCGGTA reads 1.62.
The result for TGACGAAAAGTA reads -0.906; that for TGAGTCATCGTA, -0.561; that for TGAAAGCTGGTA, -0.815.
For TGAAGTATCGTA the value was -0.556; for TGACGTGTGGTT, 1.65.
With TGAGAACAGGTA, the binding signal (log2 normalized fluorescence) is -0.504.
In turn, TGACTAACTGTA displayed a binding signal (log2 normalized fluorescence) of -0.781.
The result for TGAACTGGCGTA reads -0.86; that for TGAACCGGAGTA, -0.466; that for TGAATGGTTGTA, 0.487.
The result for TGACCCGTGGTA reads 2.38; that for TGACATCTTGTA, 0.0419; that for TGAGACGTGGTC, 1.44.
Turning to TTACACGTAGCA, the binding signal (log2 normalized fluorescence) turned out to be 1.46.
For TGAAGCGCTGTA the value was 0.0579.
As for TGAGCCAGAGTA, the binding signal (log2 normalized fluorescence) was -1.02.
The result for TGATGGCTGGTA reads 0.013; that for TGAAGGGGCGTA, 0.0876; that for TGACGCGAGGTA, 1.3.
The result for TGCCAAGTGGTA reads 0.694; that for TGAGAAGACGTA, -0.51; that for TGATCACTGGTA, -0.372.
In turn, TGAGAACCGGTA registered a binding signal (log2 normalized fluorescence) of -0.907.
For TGAATAGAGGTA the value was -0.905; for TGAGACGACGTA, -0.705.
For TGGCAAGTGGTC the value was 0.794; for TGAAGGGGGGTA, 1.76.
The sequence TGAGCCAACGTA came in with a binding signal (log2 normalized fluorescence) of -0.742.
For TGATTGGTCGTA the value was -0.853; for TGACACGAGCTA, 2.46.
For TGAGAGCGAGTA the value was -0.606.
